Data from PubChem BioAssay AID1345083 (National Center for Advancing Translational Sciences (NCATS), 2018).
Hit rate of the full screen: of about 94,000 compounds, about 6,200 (6.6%) were called active. The inconclusive results got no clear call from the source; some entries with a clear call stand among them for comparison. Calls come from the whole dose curve; as a rule, active = well fitted inhibition curve with a large enough effect; inconclusive = small, poorly fitted or top-dose-only effect; inactive = flat fitted curve, though single readings scatter. Potencies of inconclusive entries are doubtful fits and often do not repeat.

assay: Cytotoxic Profiling in HEK 293 Cell Line of Diverse Libraries Using Quantitative High-Throughput Screening; conditions: HEK 293 viability, ATP luminescence (CellTiter-Glo), 48-72 h; activity change, negative = cytotoxicity: at 115 µM (top of the series) unless noted; series mostly up to 115 µM; note: nearly all actives have a fitted effect of over 60% in size
Outline: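 Pintool-delivered compounds were incubated with HEK 293 cells (250 cells/well) at 37 degree Celsius for 48 or 72 hr. ATP-dependent luminescence (CellTiter-Glo) then reported remaining viable cells.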
% is set by controls: 0 for no effect and ±100 for the full control effect; potency is the fitted concentration of half-maximal effect; tags give direction and shape of the fitted curve.

SMILES | activity change, negative = cytotoxicity | Potency | outcome
O=c1c2nc(-c3ccc(O)c(F)c3)ccc2ncn1-c1ccccc1 | inactive: -14.8% [at 172 µM] |  | 
CCCn1nccc1C(=O)NCc1cccnc1Oc1ccc(C)nc1 | inactive: 3.43% |  | 
COc1cccc(CCC(=O)N2CCC(Cc3nc(-c4ccc(F)cc4)no3)CC2)c1 |  | inconclusive: 50.1 µM [inhibitor, partial curve, poor fit] | 
Cc1[nH]ncc1CNC(=O)C1CCCCC(=O)N1Cc1ccccc1 (centres undefined) | inactive: -0.627% |  | 
O=C(c1ccc(C(F)(F)F)cc1)N1CCc2nc(C3CC3)nc(-c3ccc(O)cc3)c2C1 |  | inconclusive: 56.2 µM [inhibitor, partial curve, poor fit] | 
Cc1ccccc1-c1cc(O)c2c(c1)CN(C(=O)C1CCNCC1)CCO2 |  | inconclusive: 79.4 µM [inhibitor, partial curve, poor fit] | 
Cn1cnc(C(=O)N2CCC(Cc3ccc(COc4cccc(F)c4)cc3)CC2)c1 |  | active: 15.8 µM | 
O=S1(=O)CC(COCc2ccccc2)CN1c1ccccc1 (centres undefined) | inactive: -16.3% |  | 
COc1ccc(-c2noc([C@@H]3CCCN3C(=O)c3ccc(Cl)cc3)n2)cc1 |  | inconclusive: 89.1 µM [inhibitor, single point] | 
CC(C)(C)CC(=O)Nc1ccc([C@H]2OCC(=O)N(Cc3ccc(F)cc3)[C@@H]2CO)cc1 |  | inconclusive: 50.1 µM [inhibitor, full curve, poor fit] | 
CNC(=O)c1cccc(-c2cnc3[nH]cc(CC(=O)N(C)C)c3c2)c1 |  | inconclusive: 112 µM [inhibitor, single point] | 
O=C(O)Cn1ccc2cc(OCC3CCN(C(=O)CCC(F)(F)F)CC3)cnc21 | inactive: -11.3% [at 172 µM] |  | 
O=C(c1nc2c(o1)CCN(Cc1ccc3c(c1)CCO3)CC2)N1CCOCC1 |  | inconclusive: 100 µM [inhibitor, partial curve, poor fit] | 
CCc1nc(NC(=O)C2CC(=O)N(c3n[nH]c4cccc(F)c34)C2)sc1C (centres undefined) |  | inconclusive: 70.8 µM [inhibitor, partial curve, poor fit] | 
CCNc1cc(N2CCC(CCC(=O)N3CCN(c4cccc(OC)c4)CC3)CC2)ncn1 |  | active: 35.5 µM | 
Cc1nc2c(c(-c3ccc(O)cc3)n1)CN(Cc1cncs1)CC2 |  | inconclusive: 89.1 µM [inhibitor, partial curve, poor fit] | 
CC(C)N1CCC2(CC1)CN(C(=O)c1cnccn1)Cc1ccccc1O2 |  |  | inactive
COc1ccc(-c2onc(C)c2C(=O)NCCOc2ccccc2)cc1 |  | inconclusive: 44.7 µM [inhibitor, partial curve, poor fit] | 
O=C(NC1CCN(c2cc(-c3cccs3)[nH]n2)C1)c1cc(F)ccc1Cl (centres undefined) |  | inconclusive: 44.7 µM [inhibitor, partial curve, poor fit] | 
